Measured values taken from PubChem BioAssay AID651820 (National Center for Advancing Translational Sciences (NCATS), 2012).
Among all 340,000 compounds or so, about 12,000 (3.5%) were called active. The inconclusive results got no clear call from the source; some entries with a clear call stand among them for comparison. Calls come from the whole dose curve; as a rule, active = well fitted inhibition curve with a large enough effect; inconclusive = small, poorly fitted or top-dose-only effect, or another doubt; inactive = no such curve, though single readings can be large or run the other way. Potencies of inconclusive entries are left out as doubtful fits.

experiment: qHTS Assay for Inhibitors of Hepatitis C Virus (HCV); conditions: Huh7.5.1 HCVcc-Cre (HCVcc is cell-culture hepatitis C virus) infection, luciferase reporter, 44 h; series mostly up to 41.8 µM
Method in brief: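 Infectious HCV cell culture screen: compound-treated cells (1,000/well, pre-plated 4 h) are infected with HCVcc-Cre at roughly 0.5 moi and grown 44 h. Infection is quantified by luciferase signal after 15 min substrate incubation at room temperature.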
Potency is the fitted concentration of half-maximal effect; tags give direction and shape of the fitted curve.

Structure (SMILES)	Potency
CC1CSc2n(-c3cccc(C(F)(F)F)c3)cc(-c3ccccc3)[n+]21 (centres undefined)	inconclusive [inhibitor, partial curve]
Cc1cccc(NC(=S)NC(=O)c2ccc(Br)o2)c1C	inactive
CN(C)S(=O)(=O)c1cccc(NC(=O)CN2C(=O)NC(CCc3ccccc3)C2=O)c1 (centres undefined)	inconclusive [inhibitor, single point]
N#Cc1c2c(c(NCc3ccco3)n3c1nc1ccccc13)CCC2	inactive
O=C(c1cc2ccccc2oc1=O)N(Cc1ccco1)CC1CCCO1 (centres undefined)	inconclusive [inhibitor, partial curve, poor fit]
COc1ccc(Cc2nnc(-c3ccc(F)cc3)o2)cc1OC	inconclusive [inhibitor, single point]
CS(=O)(=O)N1CCN(c2ccccc2NC(=O)c2ccc([N+](=O)[O-])o2)CC1	active: 11.2 µM
COc1ccc(N=Nc2c(C)[nH]c3ccccc23)cc1	active: 7.08 µM
NC(=O)c1ccc(N2CCN(c3ncc(C(F)(F)F)cc3Cl)CC2)cc1	inactive
CCn1c(SCc2nc(-c3ccc(Cl)cc3)no2)nnc1-c1ccco1	inconclusive [inhibitor, single point]
O=C(N/N=C1\CCCc2ccccc21)c1cccc([N+](=O)[O-])c1	inactive
O=c1oc2cc(Oc3ccc(C(F)(F)F)cc3[N+](=O)[O-])ccc2c2c1CCCC2	inconclusive [inhibitor, full curve]
CC(=O)Oc1cc2c(C(C)=O)coc2c2ccccc12	inconclusive [inhibitor, partial curve]
CCOC(=O)CCc1c(C)c2ccc(OC3CCCCC3=O)cc2oc1=O (centres undefined)	inactive
COc1cc(/C=N/NC(=O)C2=NNC(=O)C2C)ccc1O (centres undefined)	inconclusive [inhibitor, single point]
CN(C)c1cc[n+](CC(=O)c2cccs2)cc1	inconclusive [inhibitor, partial curve]
CCOC(=O)Cc1csc(NC(=O)CN2CCN(c3ccccc3)CC2)n1	inactive
Cc1ccc(C(c2nnnn2C2CCCC2)N2c3ccccc3CC2C)cc1 (centres undefined)	inactive
Cc1ccc(C2=NN=C(NC(=O)C(F)(F)F)SC2)cc1	inconclusive [inhibitor, single point]
CN(C)S(=O)(=O)N1CCN(CC(O)COc2ccc(C(=O)c3ccccc3)cc2)CC1 (centres undefined)	inconclusive [inhibitor, partial curve]
Cc1ccc(C(=O)NC(=S)Nc2cccc(-c3nc4ccccc4s3)c2)cc1	inconclusive [inhibitor, single point]
CCc1ccc(-c2cc(C(F)(F)F)n3nc(C(=O)Nc4cnn(Cc5ccc(C)cc5)c4)cc3n2)s1	active: 11.2 µM
Cc1nn2c(N3CCOCC3)cc(C(C)C)nc2c1-c1ccccc1	inconclusive [inhibitor, partial curve]
Oc1ccc(C23CCCC2C2(CCCC2)c2ccc(O)cc2O3)c(O)c1 (centres undefined)	active: 10 µM
COc1ccc(NC(=O)CN(C)C(=O)Cc2c(C)nc3ccccc3c2C)cc1	inconclusive [inhibitor, partial curve]

Structure (SMILES)	Potency
CCOc1ccc(-c2[nH]ncc2Oc2ccccc2OC)c(O)c1	inactive
CCc1cc(Cn2nc(-c3ccccc3)cc2C(=O)NCc2cccc(Br)c2)on1	active: 3.16 µM
CC(Oc1ccc(-c2ccccc2)c(F)c1)c1ccn(S(=O)(=O)c2cccc3ccccc23)n1 (centres undefined)	inconclusive [inhibitor, partial curve]
CCc1nnc(NC(=O)c2ccc(OC)cc2OC)s1	active: 8.91 µM
CC(=O)c1c(C)cc(C)c(CSc2nnc(-c3ccco3)o2)c1C	inconclusive [inhibitor, full curve]
O=C(CN1CCN(C(=O)c2ccco2)CC1)Nc1cccc([N+](=O)[O-])c1	inactive
CCOC(=O)c1c[nH][nH]c1=O	inactive
Cc1ccc(Cn2ccnc2SCC(=O)NC2CCCC2)cc1	inactive
COc1cc2c(cc1OC)CN(CC(=O)Nc1ccc(S(=O)(=O)N(C)C)cc1)CC2	inactive
O=C(O)c1ccc(N=Nc2c(O)[nH]c3ccccc23)cc1	inactive
CNC(=O)C(=O)NCCN1CCN(C(=O)c2ccc([N+](=O)[O-])cc2)CC1	inactive
O=C(Nc1ccc(Cl)cn1)C1CCN(S(=O)(=O)c2cccs2)CC1	active: 11.2 µM
COc1cc(OC)cc(C(=O)Nc2c(C)nn(-c3ccccc3)c2C)c1	inactive
CCCN1C(=O)/C(=C/c2c(N3CCNC(=O)C3CC(=O)OCC)nc3c(C)cccn3c2=O)SC1=S (centres undefined)	inconclusive [inhibitor, full curve]
COc1ccc(NC(=O)C2CC(c3ccccc3O)=NO2)cc1OC (centres undefined)	inconclusive [inhibitor, single point]
O=C(Nc1ccc(S(=O)(=O)NC2=NCCCCC2)cc1)c1ccc(Cl)cc1Cl	inconclusive [inhibitor, partial curve, poor fit]
O=C(NCc1ccccc1)c1ccccc1NC(=O)C1CCCCC1	inconclusive [inhibitor, single point]
CS(=O)(=O)N(CC(=O)Nc1ccccc1C(=O)NCc1ccccc1)c1ccc2c(c1)OCCO2	inconclusive [inhibitor, partial curve, poor fit]
CCOc1ccc2nc(NC(=O)c3ccccn3)sc2c1	inconclusive [inhibitor, partial curve]
Nc1nc(Nc2ccccc2F)nc(N2CCCC2)c1[N+](=O)[O-]	active: 8.91 µM
Cc1ccc(C)c(SCc2noc(C(=O)NCC3CCCO3)c2C(=O)O)c1 (centres undefined)	inactive
CC(C)N=c1scc(-c2ccco2)n1/N=C/c1ccc(O)c(O)c1	inconclusive [inhibitor, single point]
O=C(O)C1(O)C[C@H](O)C(O)[C@@H](O)C1 (some centres undefined)	inactive
Cn1c(-c2ccc(C#N)cc2)c(C#Cc2ccccc2)c2ccccc21	active: 22.4 µM
